This is an account of results in PubChem BioAssay AID1508623 (National Center for Advancing Translational Sciences (NCATS), 2021).

The whole screen tested about 48,000 compounds, of which about 450 (0.94%) were called active. Another 19% or so got no clear call; they are omitted. Calls come from the whole dose curve; as a rule, active = well fitted inhibition curve with a large enough effect; inconclusive = small, poorly fitted or top-dose-only effect; inactive = no such curve, though single readings can be large or run the other way. The list shows a part of the results.
Potency is the fitted concentration of half-maximal effect.

The test in a line: Primary qHTS for Identification of Small Molecule Inhibitors of Huntingtin Promoter Activity. Note: nearly all actives have a fitted effect of over 50% in size. Particulars: HEK293 HTT promoter firefly luciferase reporter (activity 0% = vehicle and -100% = no light), 24 h; series mostly up to 57.5 µM; activity change, negative = inhibition: at the top concentration. Put shortly:
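HEK293 Fluc reporter, 2,500 cells/well, 24 h pre-culture; cpds up to 57.5 uM final, 24 h 37 degrees C; Dual-Glo, 10 min RT; normalized vehicle = 0%, zero RLU = -100%.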
In the case of `Cc1ccc(-n2nc(C(=O)N3CCN(c4cccc(C(F)(F)F)c4)CC3)c(=O)n(C)c2=O)cc1`, the Potency was active: 31.6 µM. As for `Cc1ccc(CNc2ccc(-c3nc(C(C)C)no3)cc2[N+](=O)[O-])cc1`, the “activity change, negative = inhibition” value was inactive: -10.4%.

Turning to `Cc1ccc(-n2c(=O)c3c(c4cc(C)ccc4n3C)n(CC(=O)Nc3c(C)cccc3C)c2=O)cc1`, the “activity change, negative = inhibition” value is inactive: -18%. Same read-out and setting: to `O=C(CCSCCc1ccccn1)Nc1cc(F)ccc1F` belongs inactive: -14.5%; to `CC1=C(C(=O)Nc2ccccc2)C(c2cccnc2)n2nc(SCc3ccccc3F)nc2N1` (stereo not drawn), inactive: 4.34%.

Turning to `O=c1c2sc3ccccc3c2n(Cc2ccccc2F)c(=O)n1Cc1ccccc1`, the “activity change, negative = inhibition” value is inactive: -8.45%. For the compound `CCC(CC)C(=O)Nc1cc(-c2cccc(C)c2)nn1-c1ccccc1`, the “activity change, negative = inhibition” value was inactive: -32.3%. As to `COc1ccc(Cl)cc1NC(=O)c1cc(C)nc2c1c(C)nn2-c1ccccc1`, the “activity change, negative = inhibition” value was inactive: 0.31%. Still for that read-out and setting: to `Cc1ccc(Cn2c(=O)n(Cc3ccco3)c(=O)c3sc4ccccc4c32)cc1` belongs inactive: -13.4%; to `O=c1c2cnn(-c3ccc(Cl)cc3)c2ncn1Cc1ccc(Cl)cc1Cl`, inactive: -1.86%. With `Cc1nc2c(C(=O)NCc3ccccc3)cnn2c(C)c1Cc1ccc(F)cc1`, the “activity change, negative = inhibition” value was inactive: -3.06%. For `Cc1cccc(C(=O)Nc2cc3c(cc2N2CCCCC2)n(C)c(=O)c(=O)n3C)c1`, the “activity change, negative = inhibition” value is inactive: -0.141%. As for `CC(=O)N1CCC2(CC1)OC(=O)C(C)=C2C(=O)Nc1cccc(Cl)c1C`, the “activity change, negative = inhibition” value is inactive: -6.15%. As for `CCCCC(=O)Nc1cc(C)c(O)c(-c2nc3ncccc3o2)c1`, the “activity change, negative = inhibition” value was inactive: -5.66%.

As for `O=C(CC1N=C2c3ccccc3N=C(SCc3ccccc3F)N2C1=O)NCCc1ccccc1` (stereo not drawn), the “activity change, negative = inhibition” value was inactive: -26.7%. Same read-out and setting: to `CCOc1ccc(C(=O)Nc2cc(NC(=O)c3ccco3)ccc2OC)cc1Br` belongs inactive: -13.9%; to `Cc1ccc(CCNC(=O)CCN2N=C(c3ccc(C)cc3)CCC2=O)cc1`, inactive: -21.2%; to `COc1ccc(CCC(=O)NCc2ccc3c(c2)CCN3C(=O)c2ccc(F)cc2)cc1`, inactive: -6.86%. For the compound `Cc1ccc(Cl)cc1Nc1nc2ccccc2c2nncn12`, the “activity change, negative = inhibition” value was inactive: -9.51%.

For `Cc1cccc(C)c1NC(=O)c1ccc2c(c1)N(Cc1cccc(Cl)c1)C(=O)c1ccccc1S2=O` (stereo not drawn), the “activity change, negative = inhibition” value was inactive: -19.1%.

Take `CC(C)CC(=O)Nc1nnc(S(=O)(=O)N2CCCCCC2)s1`: the “activity change, negative = inhibition” value is inactive: 0.379%.

In the case of `CCOc1cc(CC(=O)N[C@@H](CC(C)C)c2ccccc2N2CCCCC2)ccc1C(=O)O`, the “activity change, negative = inhibition” value is inactive: -3.54%. On the same count and under the same terms, the same measure for `Cc1ccc(C(=O)N(Cc2sccc2C)C2CCS(=O)(=O)C2)cc1` (stereo not drawn): inactive: -15.3%.

As for `COc1ccc(OC)c(-n2nnc3c(sc4nc(C)c(Br)c(C)c43)c2=O)c1`, the “activity change, negative = inhibition” value was inactive: -16%.

For `Cc1nc(C)c(-c2ccc(SCC(=O)Nc3ccc(Cl)c(Cl)c3)nn2)s1`, the Potency is active: 17.8 µM. Consider `O=C(NCC(c1cccs1)S(=O)(=O)c1cccs1)c1ccccc1` (stereo not drawn), for which the “activity change, negative = inhibition” value is inactive: -23.9%. Still for that read-out and setting: the same measure for `CC(NC(=O)Cn1ncc2c3ccccc3n(Cc3ccc(F)cc3)c2c1=O)c1ccccc1` (stereo not drawn): inactive: -10.2%; for `Cc1cc(Br)ccc1NC(=O)CCS(=O)(=O)c1cccc2nonc12`: inactive: -14.4%. On the same count and under the same terms, the same measure for `CC(=O)c1sc2c(c1C)c(=O)n(-c1ccc(Cl)cc1)c(=O)n2Cc1ccc(Cl)cc1`: inactive: -28.4%; for `Cc1cc(C)c(Cn2c(C)c(CNCCCc3ccccc3)c(C(=O)O)c2C)c(C)c1`: inactive: -20.2%. On the same count and under the same terms, the same measure for `CCOC(=O)c1c(NC(=O)c2noc3c2CC(C(C)(C)C)CC3)sc2c1CCCC2` (stereo not drawn): inactive: -0.842%; for `Cc1ccc(C)c(N2CCN(C(=O)CN3C(=O)COc4ccc(S(=O)(=O)N5CCCCCC5)cc43)CC2)c1`: inactive: -13%; for `COc1ccc(-c2cc(C(=O)Nc3c(C(=O)c4ccc(Cl)cc4)oc4ccccc34)no2)cc1`: inactive: -4.85%. For the compound `CCOC(=O)c1cc2c(=O)n3ccccc3nc2n(CC2CCCO2)c1=NC(=O)c1cccc(C(F)(F)F)c1` (stereo not drawn), the “activity change, negative = inhibition” value was inactive: -20.3%. On the same count and under the same terms, the same measure for `CC(=O)N1CCC(N(Cc2ccco2)C(=O)Nc2cccc(C)c2)CC1`: inactive: -1.88%. In the case of `CCOC(=O)N1CCN(S(=O)(=O)N2CCCC(C(=O)NCc3cccc(OC)c3)C2)CC1` (stereo not drawn), the “activity change, negative = inhibition” value was inactive: -27.2%.

Consider `CC1=C(C(=O)Nc2cc3cn[nH]c3cc2F)C(c2ccc(C(F)(F)F)cc2)CC(=O)N1` (stereo not drawn), for which the “activity change, negative = inhibition” value was inactive: -3.59%. Still for that read-out and setting: to `CCC1CN(C(=O)N2CCC(C(=O)NCc3ccc(C)o3)CC2)c2cc(C)ccc2O1` (stereo not drawn) belongs inactive: -14.5%. The same measure, in the same setting: the same measure for `Cc1nc2c(C(=O)NCc3ccccc3Cl)cnn2c(C)c1Cc1c(F)cccc1Cl`: inactive: -13.7%; for `CC(=O)N1CCCc2cc(S(=O)(=O)N3CCC(C(=O)NCCC(C)C)CC3)ccc21`: inactive: -13.9%.

Turning to `O=C(NC1CC(=O)N(c2ccc(F)cc2)C1)c1cc2ccccc2o1` (stereo not drawn), the “activity change, negative = inhibition” value is inactive: 9.36%. `CN1CCN(C(c2ccccc2)c2sc3nc(-c4ccco4)nn3c2O)CC1` (stereo not drawn): the “activity change, negative = inhibition” value is inactive: -0.464%.

For the compound `COc1ccccc1NC(=O)n1ncc2c(C)cccc21`, the “activity change, negative = inhibition” value was inactive: 10.3%.

`O=NN(CCCl)C(=O)NCCCl`: the activity change, negative = inhibition result is “inactive”. Regarding `CCOC(=O)c1ncn2c1CN(C)C(=O)c1cc(F)ccc1-2`, the activity change, negative = inhibition entry is “inactive”. For the compound `CC1CCc2nc(NC(=O)COc3ccc(C(C)(C)C)cc3)sc2C1` (stereo not drawn), the activity change, negative = inhibition was inactive: -14.4% [at 11.5 µM]. In the case of `Cc1cccc(CCn2c(=O)c3ccccc3n(Cc3cccc(F)c3)c2=O)c1`, the “activity change, negative = inhibition” value is inactive: 8.72%. Still for that read-out and setting: to `COc1ccc(OC)c(C2CC(=O)c3c([nH]c(C(=O)OCC4CCCCC4)c3C)C2)c1` (stereo not drawn) belongs inactive: -25.1%.
